Assay results published in ChEMBL document CHEMBL4888484, “Replenishing the malaria drug discovery pipeline: Screening and hit evaluation of the MMV Hit Generation Library 1 (HGL1) against asexual blood stage Plasmodium falciparum ,using a nano luciferase reporter read-out” (2022).
Out of some 4,800 compounds screened, about 420 (8.8%) showed an effect of 50% or more. The list shows a part of the results.

Test system: Plasmodium falciparum
Test: Confirmatory screen in NF54 nanoGlo assay, in single point, at 2uM, 72h
Format: functional, Erythrocyte
Settings: timepoint 72 hour

Row | Compound | % Inhibition [%]
1 | CCn1ccnc1C(=O)Nc1ccc(OC)nc1 | -6
2 | COc1ccc(-n2nc(C)c(Cc3ccc(Cl)cc3)c2O)cc1 | 0
3 | CC[N+](C)(CC)CCOc1cc(C)c2ccccc2n1 | 53
4 | CCn1ncc(CN2CC[C@@H]3C(=O)NCCCCCCN(Cc4ccncc4)[C@@H]3C2)c1C | 31
5 | Cn1ccnc1CCNC(=O)C(=O)Nc1cc(F)c(F)c(F)c1 | -4
6 | CCn1nccc1CN(C)C(=O)c1cc(S(=O)(=O)N(C)C)c(Cl)cc1Cl | -17
7 | Cc1ccc(NC(=O)Cn2c(C)cc(=O)c3sccc32)cc1Cl | -5
8 | CCOC(=O)N1CCN(C(=O)C2[C@H]3C(=O)N(c4ccc(OC)cc4)C[C@]34C=C[C@H]2O4)CC1 (stereo partly specified) | 4
9 | CCOc1cccc(-c2ccc3nc(-c4cccc(OC)c4)c(CCC(=O)NCCN4CCCC4)n3c2)c1 | 61
10 | O=C(O)c1cc(-c2ccc3c(c2)OCCO3)nc2c(Br)cc(Br)cc12 | -5
11 | COc1ccc(-c2nn3c([C@H]4CCCN(C)C4)nnc3s2)cc1Cl | -7
12 | COC(=O)C[C@H](CC(C)C)c1c(O)n[nH]c1C | -12
13 | Cc1cn(Cc2ncc(C(F)(F)F)cc2Cl)c(=O)[nH]c1=O | -6
14 | O=C(NCCc1cc(F)cc(F)c1)C1CC2CCC1C2 (stereo unspecified) | 0
15 | Cc1ccc(-c2ccnn2C)cc1NC(=O)[C@H]1CCCOC1 | -3
16 | O=C(CN1CCOCC1)N1CCN(CCCOc2ccccc2)CC1 | 19
17 | C[C@](O)(C(=O)NCC(=O)NC1CCCC1)c1ccc(F)cc1 | 2
18 | O=C(Cc1ccc2oc(-c3cccnc3)nc2c1)N1CCN(c2cccc(C(F)(F)F)c2)CC1 | -6
19 | N#Cc1cccc(CNc2ccc3c(c2)CCC(=O)N3)c1 | -7
20 | CN1CCCN(c2ccc(NC(=O)c3cccc(Cl)c3)c(C(=O)O)c2)CC1 | -5
21 | Cc1[nH]c2ncnc(NC(=O)c3cccc(-n4ccnn4)c3)c2c1C | 46
22 | COc1ccc(-[n+]2c(-c3ccc(-c4ccccc4)cc3)cn3c2COCC3)cc1 | 66
23 | Cc1ccc(C(=O)Nc2c(C(N)=O)sc3nc(C(F)F)cc(C4CC4)c23)cc1 | -16
24 | Cc1nc(CN2C(=O)C(=O)c3cc(Br)ccc32)cs1 | -2
25 | Cc1ccc(N2CCCC2)c(C(=O)N2CCN(Cc3c(C)nc4cc(C)ccn34)CC2)c1 | 3
26 | Cc1ccc(N2C[C@@H](c3nnc(N)o3)CC2=O)cc1 | 6

Row | Compound | % Inhibition [%]
27 | Cc1[nH]c2nc3ccccc3n2c(=O)c1Cc1ccccc1Cl | -9
28 | CN(Cc1ccc(F)cn1)c1ccn(C)n1 | -6
29 | COc1cc(OC)cc(N2CCN(C(=O)c3cccc(F)c3)[C@@H](C)C2=O)c1 | -11
30 | Clc1cccc(-c2c[nH]c([C@@H]3COCCN3C3CCOCC3)n2)c1 | -9
31 | N#Cc1cc(C(=O)N[C@H]2CCCOCC2)ccn1 | 7
32 | Cn1ncc(Br)c1C(=O)N1CCc2ccccc2C1 | 4
33 | COc1ccc(-c2nccn3cc(C(=O)N4CCCCCC4)nc23)cc1 | 0
34 | Cc1c(NS(=O)(=O)c2ccc(Cl)cc2)c(-n2cnnc2)nn1C | -7
35 | C[C@H](Oc1ccccc1)C(=O)N1CCC(c2nc(-c3ccc4c(c3)OCO4)no2)CC1 | 6
36 | CN1CCN(C2(CNc3ccnc4ccccc34)CCCC2)CC1 | 91
37 | Cc1nc(-c2ccc(NCc3cc4ccccc4o3)nc2)[nH]c(=O)c1C | -10
38 | CC(C)c1nn(C)cc1NS(=O)(=O)CCCC(F)(F)F | 2
39 | Fc1ccc(-n2ncc3c(N4CCC[C@H]4c4cccs4)ncnc32)cc1 | -2
40 | N#CC(c1ccc(Cl)cc1)N1N=C(c2ccccc2)CC1c1ccccc1 (stereo unspecified) | 4
41 | C[C@H](N)c1ccc(Nc2ncc3cc(-c4ccncc4)ccc3n2)cc1 | 93
42 | CC(C)(C)c1cc(NC(=O)c2ccccc2F)n([C@H]2CCS(=O)(=O)C2)n1 | -12
43 | O=C(O)C1C2CC2CN1C(=O)c1ccc(Cl)cc1Cl (stereo unspecified) | -15
44 | c1cncc(OCc2cnc3ccccn23)c1 | -10
45 | Cc1ccc(-c2noc(CCC(=O)NC3CCCCC3)n2)c(=O)n1C(C)C | -6
46 | OCCN(Cc1nc2ccccc2o1)c1ccc(Br)cc1 | -1
47 | Cc1cccc(NC(=O)c2c(C)sc3ncnc(N4CCCCC4)c23)c1 | 3
48 | Cc1nn(Cc2ccccc2)c2c1C(c1cccc(Cl)c1Cl)c1c(C)nn(Cc3ccccc3)c1O2 | 9
49 | O=C(c1ccccc1)c1ccc(O)c(CN2CCCN(c3ccc(C(F)(F)F)cn3)CC2)c1O | 79
50 | CC(C)(C)OC(=O)NS(=O)(=O)Nc1nccs1 | -13
51 | Cc1cc(=O)[nH]c(-n2nc(C3CC3)cc2NC(=O)C(c2ccccc2)c2ccccc2)n1 | 91
52 | N#Cc1cccc(CNC2CCCCCC2C(N)=O)c1 (stereo unspecified) | -5

Row | Compound | % Inhibition [%]
53 | Oc1ccccc1-c1cnc(C(F)(F)F)s1 | 94
54 | CC(C)CN1C(=O)[C@H](Cc2ccccc2)NC12CCN(C(=O)c1ccc(Cl)cc1)CC2 | 14
55 | COc1ccc(-c2cc(C(F)(F)F)nc(-n3nc(-c4cccc(OC)c4)c(Cl)c3-c3cccc(OC)c3)n2)cc1 | 84
56 | O=C(Nc1ccccc1N1CCCC1)[C@@H]1Cc2ccccc2O1 | -5
57 | Cc1cc(NC(=O)[C@H](C)OC(=O)c2ccc3c(c2)OCC(=O)N3)on1 | -9
58 | Cc1cc(C)n(-c2ccc(N3CC4CCC3C4)nc2)n1 (stereo unspecified) | -8
59 | CCn1cc2c(C(F)F)cc(=O)n(CCC(=O)NCc3ccc(F)cc3)c2n1 | -6
60 | O=C(NCCOc1ccccc1)N1CCN(S(=O)(=O)c2cccc(F)c2)CC1 | 2
61 | Cc1nn(CCC(=O)NC2CCCC2)cc1Br | -10
62 | CC(C)(C)c1nc(CNc2ccc(S(=O)(=O)CCO)cc2)no1 | -9
63 | Cc1cc(Br)ccc1CNC(=O)CN1CCCCC1=O | 2
64 | CC(C)(C)N(CC(N)=O)CC(=O)NC(=O)NC1CCCCC1 | 5
65 | CC(=Cc1cn(C(C)(C)C)nn1)c1nc(C)c(C#N)c(=O)[nH]1 | 0
66 | Cn1c(=O)c2c(c(-c3ccccc3)cn2C)n(CC(=O)NCc2ccco2)c1=O | -9
67 | Cc1cc(NS(=O)(=O)c2ccc(Br)cc2)ccc1-c1ccc(C(=O)O)o1 | -26
68 | O=C(NC(C1CC1)C1CC1)c1ccsc1 | -4
69 | C[C@@H](CN1CCCCC1)NC(=O)Nc1nc(C(F)(F)F)cs1 | -13
70 | O=C(CNc1ccccc1Nc1ccc(F)cc1F)N1CCNC1=O | 4
71 | O=C(Nc1ccc2c(c1)C(=O)N1CCC[C@H]1C(O)=N2)c1c(F)cccc1F | -13
72 | Cc1ccc(C)n1-c1ccccc1CNC(=O)c1ccc(C(F)(F)F)cc1 | -8
73 | CC(=O)N(C(C)=O)c1c(-c2ccccc2)nnn1-c1ccccc1 | 0
74 | CCOc1c(Br)cc(Cl)cc1NCC(=O)NC(=O)NC | -4
75 | CC(C)C(C(=O)O)N1Cc2c(cc(O)c3c2OC2(C3)C(C)CCC3C(C)(C)C(O)CCC32C)C1=O (stereo unspecified) | 1
76 | COC(=O)C1(NC(=O)c2scnc2C)CCCCC1 | -7
77 | O=C(Nc1[nH]c(=O)ncc1F)c1coc(-c2ccccc2)n1 | 80
78 | CC(C)(C)NC(=O)CNc1nnc(C2CC2)s1 | -11

Row | Compound | % Inhibition [%]
79 | CC1CCCN(C2(N3CCCC(C)C3)C(=O)Nc3ccc(F)cc32)C1 (stereo unspecified) | 19
80 | Cc1ccn([C@@H](C)c2nnc(Nc3ccn(Cc4c(Cl)cccc4Cl)n3)s2)n1 | 7
81 | Cn1c(C(C)(C)C)nc2cc(NC3CCC4(CC3)OCCO4)ccc21 | -8
82 | CCC(C)NCC(O)Cn1c(-c2ccccc2)c(-c2ccccc2)c2cc(C)ccc21 (stereo unspecified) | 92
83 | O=C(c1nnn(-c2ccccc2Cl)c1-c1cccnc1)N1CCC(Cc2ccccc2)CC1 | -7
84 | COc1ccc([C@H]2[C@H](C(=O)NCc3ccc(C)o3)CCC(=O)N2C)cc1 | -15
85 | O=C(NCc1cccc(C(F)(F)F)c1)c1csc(C(=O)NC2CCCC2)n1 | -14
86 | CC(=O)N[C@@H]1CN(Cc2nccn2Cc2ccccc2)C[C@H]1c1nccn1C | 15
87 | Cn1ncn(CC(=O)c2cccc(Cl)c2Cl)c1=O | -15
88 | O=C(CCc1ccccc1)N[C@@H](c1ccccc1)c1ccc2c3c(cccc13)CC2 | -12
89 | Cc1nc(NC(=O)N2CCOCC2CC(O)c2cccs2)sc1C (stereo unspecified) | 2
90 | O=c1c2ccccc2ncn1S(=O)(=O)c1ccc(Cl)cc1 | -1
91 | COc1ccccc1CN(C(=O)c1ccc(C)cc1)c1ccc(CC(=O)NCCN2CCCCC2)cc1 | 39
92 | O=C1O[C@H](N2CCc3ccccc3C2)c2ccccc21 | 1
93 | O=C(NC1CCCCC1)c1nn(-c2ccccc2)c(=O)c2ccccc12 | -4
94 | Cc1cccc(N2CCN(S(=O)(=O)c3cc(-c4nnc(C)o4)co3)CC2)c1 | -5
95 | Cc1nn(C)cc1-c1cc(C(F)(F)F)nc(N2CCOCC2)n1 | -5
96 | Nc1ccc2c(N3CCC(C4OCCO4)CC3)ncnc2n1 | -2
97 | COc1ccc2c(c1)OC13CCN(C)CC1C2C(C(=O)c1ccccc1OC)C(=O)N3 (stereo unspecified) | 57
98 | COc1cc(C(=O)Nc2nnc(-c3ccc(C)s3)[nH]2)on1 | -4
99 | CC(C)(C)C1CCC(Nc2cccc(Cl)c2)(c2nnnn2[C@H](/C=C\c2ccc(Cl)cc2Cl)C(C)(C)C)CC1 (stereo partly specified) | -13
100 | Cc1c(N2C(=O)c3ccc(Cl)cc3C2=O)c(=O)n(-c2ccccc2)n1C | -8
101 | COCCNC(=O)c1ccc(-n2nc(-c3nnc(C)o3)c(C)c2-c2ccc(OC)cc2)cc1 | 46
